This note sets out measurements from PMC4336329 (PLoS ONE, 2015).

Out of some 310,000 compounds screened, about 14,000 (4.5%) showed an effect of 50% or more. The effect is printed as a negative number. This is one part of the list.
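Also: peak tail current of the secondary pulse compared with the same well before compound.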

For the assay, the target named is human ether-à-go-go-related gene (hERG) potassium channel (human, UniProt Q12809). Description: primary screen, population patch clamp on CHO cells stably expressing hERG.
human ether-à-go-go-related gene (hERG) potassium channel, sequence (Q12809 whole entry, looked up): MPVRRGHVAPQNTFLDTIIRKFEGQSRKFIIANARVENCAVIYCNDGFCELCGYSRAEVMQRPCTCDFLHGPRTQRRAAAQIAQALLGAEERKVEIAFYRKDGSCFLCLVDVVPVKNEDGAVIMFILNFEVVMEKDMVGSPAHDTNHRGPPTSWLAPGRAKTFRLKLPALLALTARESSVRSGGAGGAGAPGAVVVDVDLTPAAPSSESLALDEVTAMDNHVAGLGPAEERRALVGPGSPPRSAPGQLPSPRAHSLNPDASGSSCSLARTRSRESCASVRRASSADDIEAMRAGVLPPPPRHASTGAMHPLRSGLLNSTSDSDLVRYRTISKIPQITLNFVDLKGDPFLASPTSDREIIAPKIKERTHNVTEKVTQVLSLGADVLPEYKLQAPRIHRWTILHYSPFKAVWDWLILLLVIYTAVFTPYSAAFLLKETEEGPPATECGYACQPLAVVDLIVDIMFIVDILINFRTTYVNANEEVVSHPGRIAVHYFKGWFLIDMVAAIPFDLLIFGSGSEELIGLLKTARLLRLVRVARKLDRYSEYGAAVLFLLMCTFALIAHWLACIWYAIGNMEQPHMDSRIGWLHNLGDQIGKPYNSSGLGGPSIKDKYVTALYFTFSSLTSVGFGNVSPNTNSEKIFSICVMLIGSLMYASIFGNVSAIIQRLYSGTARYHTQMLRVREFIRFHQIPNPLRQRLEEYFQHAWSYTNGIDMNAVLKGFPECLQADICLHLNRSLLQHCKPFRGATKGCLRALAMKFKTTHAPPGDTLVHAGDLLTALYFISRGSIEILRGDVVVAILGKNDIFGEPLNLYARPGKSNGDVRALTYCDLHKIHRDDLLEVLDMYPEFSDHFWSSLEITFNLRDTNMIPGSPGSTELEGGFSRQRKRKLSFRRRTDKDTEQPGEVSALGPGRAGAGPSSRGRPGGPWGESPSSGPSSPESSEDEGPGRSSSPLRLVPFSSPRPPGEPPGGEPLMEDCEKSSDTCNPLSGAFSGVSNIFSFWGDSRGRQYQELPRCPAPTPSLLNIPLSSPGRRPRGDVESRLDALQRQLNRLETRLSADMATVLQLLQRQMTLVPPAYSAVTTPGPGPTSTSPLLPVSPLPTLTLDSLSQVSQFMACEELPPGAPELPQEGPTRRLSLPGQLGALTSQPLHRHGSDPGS
Take `CN(CC(O)COCc1ccccc1F)C1CCCCC1` (stereo not drawn): the “hERG current change (%, negative = inhibition) at 10uM” value is recorded as -14.6%.
To `O=C1CC(C(F)(F)C(F)(F)C(F)(F)F)=Nc2ccccc2N1` belongs -15.1%; to `O=C(O)c1ccc(NNC(=S)Nc2cc(C(F)(F)F)ccc2Cl)cc1`, 19.4%; to `O=C1c2cccnc2C(O)N1Cc1ccccc1` (stereo not drawn), 1.78%.
As for `O=C(CCNS(=O)(=O)c1ccc(Cl)cc1)N1CCOCC1`, the “hERG current change (%, negative = inhibition) at 10uM” value was 22.4%.
`CCc1c(C)c2cc(Cl)c(O)c(CN(C)C)c2oc1=O`: the “hERG current change (%, negative = inhibition) at 10uM” value amounted to 10.8%.
For `COc1ccc([N+](=O)[O-])cc1N(CC(O)CN1CCCCC1)S(=O)(=O)c1ccccc1` (stereo not drawn), the “hERG current change (%, negative = inhibition) at 10uM” value was -11.2%.
As for `Cc1ccc(OCCN2C(=O)C(=O)c3cc(C)ccc32)cc1`, the figure is -7.56%; as for `COc1ccc(/C=N/Nc2ccc([N+](=O)[O-])cc2)cc1Cn1cc([N+](=O)[O-])cn1`, 17.7%.
As for `O=C(OCC#CCSc1nnc(-c2ccccc2)o1)c1cc2ccccc2o1`, the “hERG current change (%, negative = inhibition) at 10uM” value worked out at 4.07%.
To `O=C1c2ccccc2NC(c2ccccn2)N1NS(=O)(=O)c1ccccc1` (stereo not drawn) belongs 3.72%; to `CC(=O)O/N=C(\N)c1cnn2c(C(F)(F)F)cc(C(F)(F)F)nc12`, 14.9%.
Regarding `CC(CN1CCCC1)OC(=O)c1ccc(F)cc1.Cl` (stereo not drawn), the “hERG current change (%, negative = inhibition) at 10uM” value is reported as -10.1%.
Consider `CCCOc1ccc(Cc2nn3c(=O)/c(=C/c4ccco4)sc3nc2=O)cc1`, for which the “hERG current change (%, negative = inhibition) at 10uM” value amounted to 22.8%.
Take `CCOC(=O)N1CCN(C(=O)C(CC(C)C)NS(=O)(=O)c2ccc(C)cc2)CC1` (stereo not drawn): the “hERG current change (%, negative = inhibition) at 10uM” value is -4.14%.
To `COc1ccccc1-n1c(SCC(=O)Nc2ccc(Br)cc2)nc(O)cc1=O` belongs 16.4%; to `C/C(=N\NC(N)=O)c1ccc(-n2ccnc2)cc1`, 10.9%; to `Cc1cccnc1NC(=S)NCCc1ccccc1`, -4.2%.
As for `CCOC(=O)c1ccc(Nc2cc(C)nc(N3CCOCC3)n2)cc1`, the figure is -2.79%.
With `COc1cccc(NC(=S)N(Cc2ccc(C)cc2)Cc2ccccn2)c1`, the “hERG current change (%, negative = inhibition) at 10uM” value was -30.2%.
For `C=C(C)COc1ccc(-c2[nH]ncc2-c2ccc(Br)cc2)c(O)c1`, the “hERG current change (%, negative = inhibition) at 10uM” value is recorded as 8.06%.
To `O=C(CN1CCN(S(=O)(=O)c2ccc(F)cc2)CC1)c1ccc(O)c(O)c1` belongs -34.9%; to `COc1ccc(NC(=O)CCCC(=O)OCC(F)(F)C(F)F)cc1`, -30.7%.
In the case of `COc1ccc2nc(NC(=O)CN3C(=O)NC4(CCCC4)C3=O)sc2c1`, the “hERG current change (%, negative = inhibition) at 10uM” value is 2.25%.
Regarding `CCOc1ccccc1NC(=O)c1cc(-c2ccccn2)nc2ccccc12`, the “hERG current change (%, negative = inhibition) at 10uM” value is reported as -23%.
As to `CCN(C(=O)COC(=O)c1ccc2[nH]c3c(c2c1)CCCC3)C1CCS(=O)(=O)C1` (stereo not drawn), the “hERG current change (%, negative = inhibition) at 10uM” value was -8.35%.
Take `O=C(O)/C=C/C(=O)N1CCN(S(=O)(=O)c2cc(C(F)(F)F)ccc2Cl)CC1`: the “hERG current change (%, negative = inhibition) at 10uM” value is on record as 2.71%.
Take `COc1ccc([N+](=O)[O-])cc1NC(=O)COC(=O)Cc1cc(OC)c(OC)c(OC)c1`: the “hERG current change (%, negative = inhibition) at 10uM” value was -17.8%.
Regarding `Cn1c(=O)[nH]c(=O)c2c1nc(NCc1ccccc1)n2Cc1ccc(F)cc1`, the “hERG current change (%, negative = inhibition) at 10uM” value was 10.2%.
Turning to `CC(=O)c1cccc(OCC(O)CN2CCN(S(=O)(=O)c3c(F)cccc3F)CC2)c1.O=C(O)C(=O)O` (stereo not drawn), the “hERG current change (%, negative = inhibition) at 10uM” value is listed as -31%.
For `Cc1cc(C)n(Cc2ccc(C(=O)Nc3cccc(Br)c3)o2)n1`, the “hERG current change (%, negative = inhibition) at 10uM” value is given as -7.78%.
For the molecule `COc1ccc(/C=C2\SC(=S)N(CC3CCCO3)C2=O)cc1` (stereo not drawn), the “hERG current change (%, negative = inhibition) at 10uM” value is listed as 14.2%.
For `CCOc1cc(C=O)ccc1OCCn1c([N+](=O)[O-])cnc1C`, the “hERG current change (%, negative = inhibition) at 10uM” value turned out to be 3.96%.
For the molecule `CCOC(=O)c1cn(CC(=O)Nc2ccc(CC)cc2)nn1`, the “hERG current change (%, negative = inhibition) at 10uM” value is reported as 7.76%.
As for `O=C(CCC1CCCC1)Nc1ccon1`, the figure is 12.2%; as for `O=C(c1cc(C2CC2)on1)N1CCN(C(c2ccccc2)c2ccccc2)CC1`, 16.5%.
To `O=C1C(Oc2ccccc2)C(c2ccc3c(c2)OCO3)N1CCc1ccc(F)cc1` (stereo not drawn) belongs 13.5%.
For the molecule `CCOc1ccccc1N1CCN(C(=O)/C=C/c2cccc([N+](=O)[O-])c2)CC1`, the “hERG current change (%, negative = inhibition) at 10uM” value is listed as -38.9%.
`COc1ccc(OC)c(C2=NNC(=NCc3ccc4c(c3)OCO4)SC2)c1`: the “hERG current change (%, negative = inhibition) at 10uM” value is -15%.
Regarding `CCOc1ccc(NCc2nnc(SCC(=O)Nc3cc(C)on3)n2-c2ccccc2OC)cc1`, the “hERG current change (%, negative = inhibition) at 10uM” value came to 1.71%.
On to `CCOC(=O)c1ccccc1NC(=O)COC(=O)C1=COCCO1`, for which the “hERG current change (%, negative = inhibition) at 10uM” value is recorded as 4.78%.
`CN1CCN(C(=O)/C(=C\c2cccc([N+](=O)[O-])c2)NC(=O)c2cccs2)CC1`: the “hERG current change (%, negative = inhibition) at 10uM” value was -25.4%.
As for `Cc1ccc(-n2nc(CN3CCOCC3)c(-c3ccccc3)c2N)c(C)c1`, the “hERG current change (%, negative = inhibition) at 10uM” value is -9.78%.
As for `Cn1c(SCC(=O)C(C)(C)C)nnc1-c1ccncc1`, the figure is -3.14%.
Turning to `COc1ccc(N2CCN(C(=O)NCc3ccc(OC)c(OC)c3)CC2)cc1`, the “hERG current change (%, negative = inhibition) at 10uM” value was 19.2%.
To `COc1ccc(N2C(=O)CC(NCc3ccncc3)C2=O)cc1` (stereo not drawn) belongs 16.7%; to `COc1ccc(N(CC(=O)Nc2cc(C)ccc2C)S(=O)(=O)c2c(C)[nH]c(=O)[nH]c2=O)cc1`, 16.2%; to `Cc1ccc(C(=O)NC2CCCN(c3ccc(C(F)(F)F)cn3)C2)cn1` (stereo not drawn), -2.75%.
For the molecule `Fc1ccc(/C=N/NC2=Nc3cccc4cccc2c34)cc1`, the “hERG current change (%, negative = inhibition) at 10uM” value was found to be 36.8%.
In the case of `Cc1csc(SCC(=O)Nc2ccccc2)n1`, the “hERG current change (%, negative = inhibition) at 10uM” value was determined as 30.5%.
As to `CCCCCCc1ccc(OCC(=O)OC)cc1OCC(=O)OC`, the “hERG current change (%, negative = inhibition) at 10uM” value is listed as 14.1%.
To `CCn1c(SCC(=O)O)nc2sc3c(c2c1=O)CCC3` belongs -3.55%; to `Cc1cc(C)cc(NC(=O)COc2coc(CN3CCc4ccccc4C3)cc2=O)c1`, 1.13%; to `CCOc1ccc(/C=C2/Sc3ccc(C(=O)N4CCOCC4)cc3N(C)C2=O)cc1OC`, -18.5%.
With `COc1ccc(S(=O)(=O)N2CCCCCC2)cc1C(=O)N(C)Cc1cccc(OC)c1OC`, the “hERG current change (%, negative = inhibition) at 10uM” value is -13.8%.
Take `Cc1cccc(OC(C)C(=O)N/N=C\c2ccncc2)c1` (stereo not drawn): the “hERG current change (%, negative = inhibition) at 10uM” value was -6.27%.
With `CCC(C)NC(=O)CCc1c(C)nc2nc(-c3cc(OC)cc(OC)c3)nn2c1C` (stereo not drawn), the “hERG current change (%, negative = inhibition) at 10uM” value is -26.2%.
Consider `Cc1cccc(C)c1NC(=O)NN1C(C)CCCC1C` (stereo not drawn), for which the “hERG current change (%, negative = inhibition) at 10uM” value was found to be 22.3%.
Take `Cc1ccccc1NC(=O)Nc1ccc2c(c1)OCO2`: the “hERG current change (%, negative = inhibition) at 10uM” value is on record as 1.01%.
As for `O=C(Nc1nc(-c2cccc([N+](=O)[O-])c2)cs1)C(c1ccccc1)c1ccccc1`, the “hERG current change (%, negative = inhibition) at 10uM” value was found to be 12%.
As to `NC(=O)c1ccc(Oc2ccc(-c3nnco3)cc2)c([N+](=O)[O-])c1`, the “hERG current change (%, negative = inhibition) at 10uM” value was found to be 1.84%.
To `CCN1CCN(C(=O)c2cc(=O)c3cc(C)ccc3o2)CC1` belongs -21.8%.
Take `COc1ccc2nc(N(Cc3ccccc3)C(=O)CCNC(C)=O)sc2c1`: the “hERG current change (%, negative = inhibition) at 10uM” value was -8.54%.
Take `COc1ccccc1Nc1nc2c(C)cccc2cc1C#N`: the “hERG current change (%, negative = inhibition) at 10uM” value was -2.92%.
With `Cc1ccc(S(=O)(=O)c2cc3c(=O)n4cccc(C)c4nc3n(CC3CCCO3)c2=N)cc1C` (stereo not drawn), the “hERG current change (%, negative = inhibition) at 10uM” value is given as 2.35%.
`COc1cccc(C(=O)NN2CC(O)=C(c3nc4ccccc4s3)C2=N)c1`: the “hERG current change (%, negative = inhibition) at 10uM” value amounted to 14.7%.
As for `COc1ccc(/C=N/NS(=O)(=O)c2ccc(C)cc2)cc1OC(=O)c1ccccc1`, the “hERG current change (%, negative = inhibition) at 10uM” value is -8.72%.
On to `Nc1ccc2nn(-c3ccc(Cl)cc3)nc2c1`, for which the “hERG current change (%, negative = inhibition) at 10uM” value is -1.58%.
With `C/C(=N\NC(=O)c1cccc(S(=O)(=O)N2CCOCC2)c1)c1ccc(OCC(=O)N(C)C)cc1`, the “hERG current change (%, negative = inhibition) at 10uM” value was determined as 21.3%.
As for `CCCN(CC(=O)Nc1ccccc1OC)C(=O)CCCN1C(=O)c2ccccc2C1=O`, the “hERG current change (%, negative = inhibition) at 10uM” value was -17.5%.
As to `CCOC(=O)Nc1ccc2c(COC(=O)CNS(=O)(=O)c3cccc(Br)c3)cc(=O)oc2c1`, the “hERG current change (%, negative = inhibition) at 10uM” value is recorded as 5.51%.
Turning to `CCCn1c(CCc2ccccc2)n[nH]c1=S`, the “hERG current change (%, negative = inhibition) at 10uM” value was 5.81%.
Take `CCOc1ccc(NC(=O)CN2C(=O)NC(C)(c3ccc(OC(F)F)cc3)C2=O)cc1` (stereo not drawn): the “hERG current change (%, negative = inhibition) at 10uM” value is reported as -16.1%.
In the case of `CN(C)c1ccc(/C=N/NC(=O)CN(c2cccc(Cl)c2)S(C)(=O)=O)cc1Br`, the “hERG current change (%, negative = inhibition) at 10uM” value turned out to be 12.4%.
For `O=C1CN(C(=O)CNC(=O)c2ccc(Cl)cc2Cl)CCN1`, the “hERG current change (%, negative = inhibition) at 10uM” value is 9.86%.
Take `Cc1oc(-c2ccccc2Cl)nc1CS(=O)CC(=O)NCc1ccc(Cl)cc1` (stereo not drawn): the “hERG current change (%, negative = inhibition) at 10uM” value was -11.2%.
To `C=CCn1c(=S)[nH]c2cc(C(=O)Nc3ccc(F)cc3)ccc2c1=O` belongs 6.54%.
As for `Cc1cc(NC(=O)CCN2CCN(C)CC2)ccc1Br.Cl`, the figure is -7.85%; as for `O=C(Cn1cnc2sc(-c3ccccc3)cc2c1=O)NCc1ccccc1`, 3.58%; as for `CCOC(=O)c1cc(C(=O)Nc2sc3c(c2C#N)CCCC3)nn1C`, 12.4%.
Regarding `CCOc1ccc(/C=N/NC(=O)c2nnn(-c3nonc3N)c2CN2CCC(C)CC2)cc1`, the “hERG current change (%, negative = inhibition) at 10uM” value is given as -7.36%.
In the case of `Cc1cccc(C(=O)N(Cc2nc3ccccc3c(=O)[nH]2)C2CCCCC2)c1`, the “hERG current change (%, negative = inhibition) at 10uM” value is recorded as -35.1%.
Take `N#Cc1cn(CC(=O)N2CCCC2)c2ccccc12`: the “hERG current change (%, negative = inhibition) at 10uM” value stood at 8.6%.
Consider `O=C(c1ccccc1)c1nnc(-c2ccncc2)o1`, for which the “hERG current change (%, negative = inhibition) at 10uM” value is given as -1.78%.
To `COC(=O)c1ccc(COc2ccc(/C=N/O)cc2OC)o1` belongs -29.5%; to `CSCCC(NC(=O)COc1ccccc1)C(=O)OCCOc1ccc(Br)cc1` (stereo not drawn), -9.76%.
Turning to `CCCCC1=CC2=C(c3ccco3)C(=O)C(C)(OC(=O)c3ccc(OC)cc3)C(=O)C2=CN1c1ccc(OC)cc1` (stereo not drawn), the “hERG current change (%, negative = inhibition) at 10uM” value was 0.413%.
